In PubChem BioAssay AID1745853 (National Center for Advancing Translational Sciences (NCATS), 2022) one finds activity change, negative = inhibition data, which are given here for 31 molecules.

What all share (test): Primary Screen for Target Class Profiling of Small Molecule Inhibitors of Methyltransferases
The target in assay [1] is Glycine N-methyltransferase (Homo sapiens) (UniProt Q14749). Conditions: purified enzyme, MTase-Glo SAH luminescence; measured here: GNMT inhibition; at 40 µM; stronger effect = lower value. Summed up:
(§1)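 Each enzyme was reacted with SAM and its substrate, with compounds tested once at 40 uM; SAH formed was read by MTase-Glo luminescence.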

The target of assay [2] is Guanidinoacetate N-methyltransferase (Homo sapiens) (UniProt Q14353). The conditions noted are these: purified enzyme, MTase-Glo SAH luminescence; measured here: GAMT inhibition; at 40 µM; stronger effect = lower value. The method, boiled down:
as §1

In assay [3] the target is Histamine N-methyltransferase (Homo sapiens) (UniProt P50135). The conditions noted are these: purified enzyme, MTase-Glo SAH luminescence; measured here: HNMT inhibition; at 40 µM; stronger effect = lower value. Summed up: as §1
Assay [4] has as its target Nicotinamide N-methyltransferase (Homo sapiens) (UniProt P40261). Conditions: purified enzyme, MTase-Glo SAH luminescence; measured here: NNMT inhibition; at 40 µM; stronger effect = lower value. Summed up:
as §1

The target in assay [5] is Phenylethanolamine N-methyltransferase (Homo sapiens) (UniProt P11086). The conditions noted are these: purified enzyme, MTase-Glo SAH luminescence; measured here: PNMT inhibition; at 40 µM; stronger effect = lower value. Summed up:
as §1

Where “and” joins values, the source holds several entries; their conditions need not be identical. Equal values may be shown once. This is one part of the list. Shown are side measurements of this screen, not its main read-out; they come without a call.
% is set by controls: 0 for no effect and ±100 for the full control effect.

On to `Cc1ccc2c(c1)c(-n1cccc1)c1n2CC(C)(C(=O)NC2CCC(C)CC2)N(Cc2ccccc2Cl)C1=O` (stereo not drawn), for which the activity change, negative = inhibition in assay [1] stood at 0.258%; in assay [2] it was 0%; in assay [3], 3.81%; in assay [4] it was 2.3%; in assay [5], 0.361%.
On the same counts, the results for `c1ncc(CN2CCn3c(nnc3C3CCCNC3)C2)s1` (stereo not drawn) are -3.95%, -6.9%, -1.33%, -11.2% and -7.76%.
For `FC(F)(F)c1cc(-c2ncn(/C=C\c3nnco3)n2)cc(C(F)(F)F)c1`, the activity change, negative = inhibition in assay [1] is 4.49%; in assay [2] it was 11.8%; in assay [3], 5.86%; in assay [4], -12.3%; in assay [5] it was 1.77%.
On to `Cc1cnc(CCNC(=O)C2CC=CC2)n1C1CC1`, for which the activity change, negative = inhibition in assay [1] is 0.97%; in assay [2], 4.43%; in assay [3] it was -3.96%; in assay [4], -2.08%; in assay [5] it was 3.57%.
With `CCOc1ccc(CCN2C(=O)c3cc4ccc(OC)cc4n3CC2(C)C(=O)NC2CCCC2)cc1` (stereo not drawn), the activity change, negative = inhibition in assay [1] is 2.54%; in assay [2] it was 0%; in assay [3], 2.64%; in assay [4], 4.33%; in assay [5], -1.09%.
For `CC(C)c1cc2c(c(O)c1O)[C@@]13CCCC(C)(C)[C@@H]1[C@H](OC3=O)C2=O`, in that order: -6.07%, -6.81%, 0.349%, -23.1% and -13.4%.
`CCCn1c(=O)c2cc(Cl)ccc2n2c(SCC(=O)NCc3ccc(C)cc3)nnc12`: the activity change, negative = inhibition in assay [1] amounted to 3.31%; in assay [2], 3.96%; in assay [3] it was 10.6%; in assay [4] it was 5.24%; in assay [5], 4.33%.
On the same counts, the results for `CC1C2=CC(=O)OC2(O)CC2C1C(O)CC1C(C)(CO)CCCC21C` (stereo not drawn) are 1.56%, 5.23%, 4.81%, -7.97% and -2.42%.
Turning to `CC(C)Cn1c(=O)c2ccc(C(=O)NC3CCCC3)cc2n2c(=O)n(Cc3cccc(F)c3)nc12`, the activity change, negative = inhibition worked out at 3.44% in assay [1]; 0% in assay [2]; 7.34% in assay [3]; 0.341% in assay [4]; 4.42% in assay [5].
With `Cc1ccc(CCNC(=O)c2cc3n(n2)CC(C)(C(=O)NC2CCCCC2)N(C)C3=O)cc1` (stereo not drawn), the activity change, negative = inhibition was 2.14% in assay [1]; 2.75% in assay [2]; 1.75% in assay [3]; -2.8% in assay [4]; -0.981% in assay [5].
For the molecule `CCOC(=O)Cc1ccc(NC(=O)N2CCn3cccc3C2C(C)C)cc1` (stereo not drawn), the activity change, negative = inhibition was 15.5% in assay [1]; 2.06% in assay [2]; 10.2% in assay [3]; 6.81% in assay [4]; 11.2% in assay [5].
With `CCOc1ccc(N2C(=O)c3cc(C(=O)OC)nn3CC2(C)C(=O)NC2CCCCC2)cc1` (stereo not drawn), the activity change, negative = inhibition in assay [1] is -0.907%; in assay [2] it was 2.87%; in assay [3], 6.54%; in assay [4] it was 2.28%; in assay [5], 1.04%.
For `Cc1ccc(C)c(S(=O)(=O)n2cnc3ccccc32)c1`, the activity change, negative = inhibition in assay [1] is 7.69%; in assay [2], 6.98%; in assay [3], 5.97%; in assay [4], -5.84%; in assay [5] it was 4.81%.
`CCN(Cc1ccccc1)C(=O)CCC[C@H]1NC[C@@H]2CC1CN(Cc1ccccc1)C2`: the activity change, negative = inhibition in assay [1] is -6.4%; in assay [2], 0.07%; in assay [3] it was -44.8%; in assay [4], -18.9%; in assay [5] it was 10.4%.
For `CC1CCC(NC(=O)CCc2nnc3n(CCc4ccccc4)c(=O)c4ccccc4n23)CC1` (stereo not drawn), the activity change, negative = inhibition in assay [1] was -6.41%; in assay [2] it was 0%; in assay [3] it was 4.14%; in assay [4], 7.6%; in assay [5], -3.34%.
For `CC1(C(=O)NC2CCCCC2)Cn2c(cc3occc32)C(=O)N1CCN1CCCCCC1` (stereo not drawn), the activity change, negative = inhibition in assay [1] is 2.84%; in assay [2], 0%; in assay [3] it was -7.29%; in assay [4], 3.88%; in assay [5] it was 0.227%.
Regarding `CCCCc1ccc(C(=O)Nc2cc(-c3ccc(Cl)cc3)nn2-c2ccc(Cl)cc2)cc1`, the activity change, negative = inhibition in assay [1] was -1.01%; in assay [2], -38.3%; in assay [3], -5.41%; in assay [4], -39.2%; in assay [5], -18.5%.
Turning to `CCc1cccc(N2C(=O)CSc3c(c4ccccc4n3C)C2C(=O)NCc2ccc(F)cc2)c1` (stereo not drawn), the activity change, negative = inhibition in assay [1] is -1.71%; in assay [2] it was 4.07%; in assay [3], 10.8%; in assay [4], 5.58%; in assay [5], -4.1%.
For `CCOC(=O)c1cc(Nc2ccccc2)c2cc(Cl)ccc2n1`, in that order: -14.2%, 0.995%, -2.27%, -1.92% and -7.12%.
With `Cc1c(Cl)cccc1N1C(=O)c2cc3occc3n2CC1(C)C(=O)NC1CCCCCC1` (stereo not drawn), the activity change, negative = inhibition is -8.01% in assay [1]; 1.92% in assay [2]; -5.95% in assay [3]; -7.08% in assay [4]; -5.69% in assay [5].
Regarding `O=C(Nc1ccc2c(c1)CCN(Cc1ncn[nH]1)C2)c1ccccc1-c1ccc(C(F)(F)F)cc1`, the activity change, negative = inhibition in assay [1] is 6.59% and -6.12%; in assay [2], 13.2% and 11.2%; in assay [3], 5.46% and -2.13%; in assay [4], -4.47% and -16.5%; in assay [5], 3.33% and -8.47%.
Regarding `NCc1ccc(Oc2ccc(F)c(Cl)c2)cc1`, the activity change, negative = inhibition in assay [1] is -6.75%; in assay [2], 0.767%; in assay [3] it was -2.36%; in assay [4], -20.6%; in assay [5], -27.9%.
With `N#Cc1cc([N+](=O)[O-])c2sc(C(N)=O)[n+]([O-])c2c1`, the activity change, negative = inhibition in assay [1] is -8.68%; in assay [2], 10.2%; in assay [3] it was 3.63%; in assay [4], -4.08%; in assay [5] it was 3.92%.
For `CC1(C(=O)NC2CCCCCCC2)Cn2c(cc3sccc32)C(=O)N1CCc1ccc(Cl)cc1` (stereo not drawn), the activity change, negative = inhibition was -2.66% in assay [1]; 1.67% in assay [2]; -0.753% in assay [3]; 0.884% in assay [4]; -4.23% in assay [5].
For the molecule `Cc1noc(C)c1C(=O)N1CCN(S(=O)(=O)c2ccc(Cl)nc2)C(=O)C1`, the activity change, negative = inhibition was -6.1% in assay [1]; -2.34% in assay [2]; -1.03% in assay [3]; 0.174% in assay [4]; 3.85% in assay [5].
On to `CC(CN1C(=O)c2cc3occc3n2CC1(C)C(=O)NC1CCCCCC1)c1ccccc1` (stereo not drawn), for which the activity change, negative = inhibition in assay [1] is 2.4%; in assay [2], 0.684%; in assay [3], 8.17%; in assay [4], -2.69%; in assay [5], -0.748%.
With `Cc1[nH]c(-c2ccccc2)nc1C(=O)N1CCCC[C@H](N(C)C)C1`, the activity change, negative = inhibition in assay [1] is 0.748%; in assay [2], -2.07%; in assay [3], -14.2%; in assay [4], -0.963%; in assay [5], -12.5%.
In the case of `CC(C)CN(CC1CN(C(=O)c2ccccc2)CCO1)C(=O)c1cccc2ccccc12` (stereo not drawn), the activity change, negative = inhibition in assay [1] was -4.06%; in assay [2] it was -1.25%; in assay [3], 1.67%; in assay [4], -4.62%; in assay [5], -4.65%.
Take `CCCC1c2cccn2CCN1C(=O)NCC1CCC(C(=O)OCC)CC1` (stereo not drawn): the activity change, negative = inhibition in assay [1] was -4.25%; in assay [2], 1.27%; in assay [3] it was -10.9%; in assay [4], -3.3%; in assay [5], -1.14%.
Turning to `CS(=O)(=O)CCNCc1nc(-c2ccc3ncnc(Nc4ccc(OCc5cccc(F)c5)c(Cl)c4)c3c2)cs1`, the figures for the activity change, negative = inhibition in assay [2], in assay [4] and in assay [5] were 1.47%, -3.94% and 4.85%, respectively.
For the molecule `CN1CCN(S(=O)(=O)c2cc(C(=O)O)cc(-c3ccncc3)c2)CC1`, the activity change, negative = inhibition was -1.43% in assay [1]; 0.536% in assay [2]; 2.54% in assay [3]; -2.26% in assay [4]; 12.8% in assay [5].
